Data reported in US11020404B2, “Use of CDK9 and BRD4 inhibitors to inhibit inflammation” (THE REGENTS OF THE UNIVERSITY OF CALIFORNIA, priority 2014, dated 2021).

How the values were obtained:
[1] = test system: iNOS induction in human primary chondrocytes; assay: iNOS mRNA induction by different inflammatory stimuli in human primary chondrocytes; conditions: FIG. 5C
[2] = test system: IL-1β-induced iNOS transcription in primary chondrocytes; assay: Primary human chondrocytes stimulated with IL-1β or TNF-α, qRT-PCR of inflammatory and catabolic genes; design-of-experiment for minimal drug dose; conditions: for repression of a panel of pro-inflammatory and catabolic genes: 10 ng/ml IL-1β or TNF-α, 5 hours; for minimal dose in combined treatment to achieve complete repression of IL-1β response: combined Flavopiridol + JQ1, healthy human chondrocytes, 4 donors, DOE; for dosage for single treatment: each drug alone, IL-1β response
[3] = test system: bovine cartilage explants; assay: Single impact injury of bovine cartilage explants, mRNA by quantitative real-time PCR; format: cell-based; conditions: first 24 hours after mechanical injury
From the text: Cartilage explants—Bovine calf (˜2 months old, n=40 joints, sex unknown) stifle joints were obtained from a local slaughterhouse (Petaluma, Calif.) within 1 day of slaughtering. 6-8 cylindrical cartilage explants were harvested from each femoral condyle with a 6 mm biopsy punch inserted perpendicular to the weight bearing area of the articular surface. The explants were then trimmed into ˜3 mm thickness (with the articular surface intact and the deep layer cut flat) using a custom jig. The explants were washed with phosphate buffered saline and cultured for 24 hours in high-glucose Dulbecco's Modified Eagle's Medium (DMEM) supplemented with 10% fetal bovine serum (Invitrogen), penicillin (1×10^4 units/ml) and streptomycin (1×10^4 μg/ml) at 37° C., 5% CO2, and 95% relative humidity.
At 2-, 6-, and 24-hours post-injury, the explants were frozen in liquid nitrogen and pulverized with a pestle and mortar while frozen. […] The quantity and quality of the total RNA were determined by a Nanodrop-2000 spectrophometer. […] Individual mRNA expression was determined with quantitative real-time PCR performed in triplicates in a 7900HT system (Applied Biosystem). Results were normalized to the 18s rRNA (catalog no. 4319413E, Applied Biosystem) and calculated as fold-change in mRNA expression relative to control, using the 2^−ΔΔCT method. […]

[4] = test system: synovial hyperplasia / rheumatoid arthritis; conditions: cited from earlier work
[5] = test system: IL-1β-induced genes in primary human chondrocytes; assay: Microarray of IL-1β-induced genes in primary human chondrocytes; conditions: Flavopiridol alone
[6] = test system: chondrocytes in bovine cartilage explants; assay: Chondrocyte viability by Live/Dead stain in cartilage explants; conditions: 5 days
[7] = test system: iNOS induction in human primary chondrocytes; conditions: Yik et al. 2014; cited from earlier work

SMILES	inflammatory response induced by IL-6 [1]	repression of a panel of pro-inflammatory and catabolic genes [2]	minimal dose in combined treatment to achieve complete repression of IL-1β response [2]	dosage for single treatment [2]	adverse side effects on anabolic gene expression [3]	synovial hyperplasia ([4]; mouse models of rheumatoid arthritis)	rheumatoid arthritis ([4]; mouse models, effect reversible on stopping treatment)	share of the 873 IL-1β-induced genes not suppressed at all [5]	share of the 873 IL-1β-induced genes suppressed to at least 75% less than maximum induction [5]	cell survival in uninjured explants (live/dead stain) [6]	induction of mRNA of other inflammatory cytokines and catabolic genes such as MMPs by the four stimuli [7]
Cc1sc2c(c1C)C(c1ccc(Cl)cc1)=N[C@@H](CC(=O)OC(C)(C)C)c1nnc(C)n1-2 [JQ1]	suppress	effectively repressed	250 nM	1200 nM	–	–	–	–	–	–	–
CN1CC[C@H](c2c(O)cc(O)c3c(=O)cc(-c4ccccc4Cl)oc23)[C@H](O)C1 [Flavopiridol, 2-(2-chlorophenyl)-5,7-dihydroxy-8-[(3S,4R)-3-hydroxy-1-methyl-4-piperidinyl]-4-chromenone]	suppress	effectively repressed	60 nM	250 nM	no adverse side effects	reduced	effectively prevented	~5%	nearly half	did not significantly affect cell survival	suppressed
